# Experimental data reported in the supplement of paper PMC10037445.
# Where “and” joins values, the source holds several entries; their conditions need not be identical. Equal values may be shown once. Over roughly 2,900 compounds, “NF-kB SEAP reporter activity, fold change vs agonist alone” has its median near 0.99; the highest 2% begin near 2.6. This is one part of the list.
# Columns and labels:
# RAW-Dual [1] = assay: NF-kB SEAP reporter activity, fold change vs agonist alone; higher = enhanced NF-kB activity; conditions: library stock concentration (final ~1000-fold dilution): 10 mM
# How it was run: (§1)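 Supernatant from RAW-Dual macrophages was read after 20 hours for IRF by QuantiLuc luminescence and for NF-κB by QuantiBlue absorbance at 620 nm. The cells (50,000 cells/well in DMEM, 384-well plates, 37 °C, 5% CO2) had received 50 nL of library stock by pin tool and, 1 h later, a PRR agonist. Reporter activity is expressed relative to agonist-alone wells as fold change, and wells were flagged cytotoxic if IncuCyte confluency was under 70% of agonist controls in both mask sets.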
# RAW-Dual [2] = assay: NF-kB SEAP reporter activity, fold change vs agonist alone; cytotoxicity flag (confluency mask): not cytotoxic; higher = enhanced NF-kB activity
# How it was run: as §1
# RAW-Dual [3] = assay: NF-kB SEAP reporter activity, fold change vs agonist alone; cytotoxicity flag (confluency mask): cytotoxic (confluency <70% of control); higher = enhanced NF-kB activity
# How it was run: as §1
# [4] = cytotoxicity flag (confluency mask): not cytotoxic, agonist: Imiquimod (TLR7) […]
# [5] = cytotoxicity flag (confluency mask): not cytotoxic, agonist: MPLA (TLR4) […]
# [6] = agonist: ODN 1826 (TLR9) 0.5 ug/mL
# [7] = agonist: Pam2CSK4 (TLR2/6) 0.1 ug/mL
# [8] = agonist: Pam3CSK4 (TLR2/1) 0.1 ug/mL
smiles,measurement,setting,value
CN(C)CCCNC(=O)c1ccc(-c2cc(O)c3ncccc3c2)cc1,NF-kB SEAP reporter activity,RAW-Dual [1]; [4],1.08
same,NF-kB SEAP reporter activity,RAW-Dual [1]; [5],1
CN(C)CCCNC(=O)c1ccc(-c2cc(O)c3ncccc3c2)cc1 (library stock concentration (final ~1000-fold dilution): 10 mM),NF-kB SEAP reporter activity,RAW-Dual [2]; agonist: LPS (TLR4) 0.1 ug/mL,0.881
same,NF-kB SEAP reporter activity,RAW-Dual [2]; [6],1.38
same,NF-kB SEAP reporter activity,RAW-Dual [2]; [7],1.13
same,NF-kB SEAP reporter activity,RAW-Dual [2]; [8],1.34
C[C@@H]1O[C@@H](Oc2c(-c3ccc(O)c(O)c3)oc3cc(O)cc(O)c3c2=O)[C@H](O)[C@H](O)[C@H]1O,NF-kB SEAP reporter activity,RAW-Dual [1]; [4],0.959
same,NF-kB SEAP reporter activity,RAW-Dual [1]; [5],1.17
C[C@@H]1O[C@@H](Oc2c(-c3ccc(O)c(O)c3)oc3cc(O)cc(O)c3c2=O)[C@H](O)[C@H](O)[C@H]1O (library stock concentration (final ~1000-fold dilution): 10 mM),NF-kB SEAP reporter activity,RAW-Dual [2]; agonist: LPS (TLR4) 0.1 ug/mL,0.954
same,NF-kB SEAP reporter activity,RAW-Dual [2]; [6],1.04
same,NF-kB SEAP reporter activity,RAW-Dual [2]; [7],1.02
same,NF-kB SEAP reporter activity,RAW-Dual [2]; [8],1.06
N#Cc1cc(-c2ccnc(Nc3ccc(N4CCOCC4)cc3)n2)ccc1OC1CCOCC1 (library stock concentration (final ~1000-fold dilution): 10 mM),NF-kB SEAP reporter activity,RAW-Dual [2]; [8],3.66
Cc1nn(C)c2nc(NNC(=O)Nc3cc(Cl)nc(Cl)c3)cc(C(C)C)c12,NF-kB SEAP reporter activity,RAW-Dual [1]; [4],0.652
same,NF-kB SEAP reporter activity,RAW-Dual [1]; [5],1.27
Cc1nn(C)c2nc(NNC(=O)Nc3cc(Cl)nc(Cl)c3)cc(C(C)C)c12 (library stock concentration (final ~1000-fold dilution): 10 mM),NF-kB SEAP reporter activity,RAW-Dual [2]; agonist: LPS (TLR4) 0.1 ug/mL,1.5
same,NF-kB SEAP reporter activity,RAW-Dual [2]; [6],1
same,NF-kB SEAP reporter activity,RAW-Dual [2]; [7],0.819
same,NF-kB SEAP reporter activity,RAW-Dual [2]; [8],1.03
O=C(O)Cc1ccccc1Nc1c(Cl)cccc1Cl (library stock concentration (final ~1000-fold dilution): 10 mM),NF-kB SEAP reporter activity,RAW-Dual [2]; agonist: LPS (TLR4) 0.1 ug/mL,0.969 and 0.937
same,NF-kB SEAP reporter activity,RAW-Dual [2]; [6],0.996 and 0.869
same,NF-kB SEAP reporter activity,RAW-Dual [2]; [7],1.02 and 0.988
same,NF-kB SEAP reporter activity,RAW-Dual [2]; [8],0.983 and 0.816
Cc1c(NC(=O)c2ccc(C(C)(C)C)cc2)cccc1-c1cn(C)c(=O)c(Nc2ccc(C(=O)N3CCOCC3)cc2)n1,NF-kB SEAP reporter activity,RAW-Dual [1]; [4],0.961
same,NF-kB SEAP reporter activity,RAW-Dual [1]; [5],0.992
Cc1c(NC(=O)c2ccc(C(C)(C)C)cc2)cccc1-c1cn(C)c(=O)c(Nc2ccc(C(=O)N3CCOCC3)cc2)n1 (library stock concentration (final ~1000-fold dilution): 10 mM),NF-kB SEAP reporter activity,RAW-Dual [2]; agonist: LPS (TLR4) 0.1 ug/mL,1.02
same,NF-kB SEAP reporter activity,RAW-Dual [2]; [6],0.926
same,NF-kB SEAP reporter activity,RAW-Dual [2]; [7],0.924
same,NF-kB SEAP reporter activity,RAW-Dual [2]; [8],0.941
O=c1ncn2nc(Sc3ccc(F)cc3F)ccc2c1-c1c(Cl)cccc1Cl (library stock concentration (final ~1000-fold dilution): 10 mM),NF-kB SEAP reporter activity,RAW-Dual [2]; agonist: LPS (TLR4) 0.1 ug/mL,0.58
same,NF-kB SEAP reporter activity,RAW-Dual [2]; [6],0.753
same,NF-kB SEAP reporter activity,RAW-Dual [2]; [7],0.504
same,NF-kB SEAP reporter activity,RAW-Dual [2]; [8],0.525
O=c1ncn2nc(Sc3ccc(F)cc3F)ccc2c1-c1c(Cl)cccc1Cl,NF-kB SEAP reporter activity,RAW-Dual [1]; [4],0.75
same,NF-kB SEAP reporter activity,RAW-Dual [1]; [5],0.801
CNC(=O)c1ccccc1Oc1nc(Nc2cc(OC)c(OC)c(OC)c2)ncc1Br (library stock concentration (final ~1000-fold dilution): 10 mM),NF-kB SEAP reporter activity,RAW-Dual [2]; agonist: LPS (TLR4) 0.1 ug/mL,0.807
same,NF-kB SEAP reporter activity,RAW-Dual [2]; [6],0.615
same,NF-kB SEAP reporter activity,RAW-Dual [2]; [7],0.363
same,NF-kB SEAP reporter activity,RAW-Dual [2]; [8],0.41
CNC(=O)c1ccccc1Oc1nc(Nc2cc(OC)c(OC)c(OC)c2)ncc1Br,NF-kB SEAP reporter activity,RAW-Dual [1]; [4],0.687
same,NF-kB SEAP reporter activity,RAW-Dual [1]; [5],0.745
O=c1[nH]cc(F)c(=O)[nH]1 (library stock concentration (final ~1000-fold dilution): 10 mM),NF-kB SEAP reporter activity,RAW-Dual [3]; agonist: LPS (TLR4) 0.1 ug/mL,1.39
same,NF-kB SEAP reporter activity,RAW-Dual [3]; [6],1.97
same,NF-kB SEAP reporter activity,RAW-Dual [3]; [7],0.912
same,NF-kB SEAP reporter activity,RAW-Dual [3]; [8],1.21
O=c1[nH]cc(F)c(=O)[nH]1,NF-kB SEAP reporter activity,"RAW-Dual [1]; cytotoxicity flag (confluency mask): cytotoxic (confluency <70% of control), agonist: Imiquimod (TLR7) […]",1.83
same,NF-kB SEAP reporter activity,"RAW-Dual [1]; cytotoxicity flag (confluency mask): cytotoxic (confluency <70% of control), agonist: MPLA (TLR4) […]",1.33
